Assay results reported in ChEMBL document CHEMBL1961873, “Compounds: GSK PKIS; Assays: Nanosyn kinase panel” (2012).
For part of these data: The strong results were mostly taken out for another list; the other results follow. Only a part is listed here, and it is no random draw.

Assays:
[1] = molecular target: Serine/threonine-protein kinase MRCK alpha (Homo sapiens) (UniProt Q5VT25); conditions: at 0.1 µM
[2] = molecular target: Serine/threonine-protein kinase MRCK alpha (Homo sapiens) (UniProt Q5VT25); conditions: at 1 µM
[3] = molecular target: Serine/threonine-protein kinase MRCK beta (Homo sapiens) (UniProt Q9Y5S2); conditions: at 0.1 µM
[4] = molecular target: Serine/threonine-protein kinase MRCK beta (Homo sapiens) (UniProt Q9Y5S2); conditions: at 1 µM
[5] = molecular target: Ribosomal protein S6 kinase alpha-5 (Homo sapiens) (UniProt O75582); conditions: at 0.1 µM
UniProt O75582, sequence (O75582 whole entry, looked up): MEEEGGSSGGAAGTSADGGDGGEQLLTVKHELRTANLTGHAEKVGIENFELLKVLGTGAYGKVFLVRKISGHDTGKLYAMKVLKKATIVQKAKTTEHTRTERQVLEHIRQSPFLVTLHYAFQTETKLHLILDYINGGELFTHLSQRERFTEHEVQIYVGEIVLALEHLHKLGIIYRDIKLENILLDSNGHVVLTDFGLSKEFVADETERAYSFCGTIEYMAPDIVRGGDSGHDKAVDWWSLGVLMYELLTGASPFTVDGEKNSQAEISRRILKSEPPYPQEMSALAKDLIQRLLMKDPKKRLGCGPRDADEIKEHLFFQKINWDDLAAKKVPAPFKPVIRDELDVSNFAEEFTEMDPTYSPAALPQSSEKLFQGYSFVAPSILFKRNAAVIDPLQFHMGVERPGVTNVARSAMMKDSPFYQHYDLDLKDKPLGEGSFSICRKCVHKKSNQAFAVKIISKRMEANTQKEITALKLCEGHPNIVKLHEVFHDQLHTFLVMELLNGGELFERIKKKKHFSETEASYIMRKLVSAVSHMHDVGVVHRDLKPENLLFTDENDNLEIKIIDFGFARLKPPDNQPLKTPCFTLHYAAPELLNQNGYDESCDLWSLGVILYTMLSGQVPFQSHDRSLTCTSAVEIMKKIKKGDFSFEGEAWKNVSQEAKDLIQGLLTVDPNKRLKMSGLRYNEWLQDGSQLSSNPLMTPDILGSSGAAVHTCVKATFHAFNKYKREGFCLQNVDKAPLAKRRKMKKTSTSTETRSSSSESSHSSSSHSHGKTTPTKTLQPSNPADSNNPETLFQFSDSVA

[6] = molecular target: Ribosomal protein S6 kinase alpha-5 (Homo sapiens) (UniProt O75582); conditions: at 1 µM
[7] = molecular target: Ribosomal protein S6 kinase alpha-4 (Homo sapiens) (UniProt O75676); conditions: at 0.1 µM
UniProt O75676, sequence (O75676 whole entry, looked up): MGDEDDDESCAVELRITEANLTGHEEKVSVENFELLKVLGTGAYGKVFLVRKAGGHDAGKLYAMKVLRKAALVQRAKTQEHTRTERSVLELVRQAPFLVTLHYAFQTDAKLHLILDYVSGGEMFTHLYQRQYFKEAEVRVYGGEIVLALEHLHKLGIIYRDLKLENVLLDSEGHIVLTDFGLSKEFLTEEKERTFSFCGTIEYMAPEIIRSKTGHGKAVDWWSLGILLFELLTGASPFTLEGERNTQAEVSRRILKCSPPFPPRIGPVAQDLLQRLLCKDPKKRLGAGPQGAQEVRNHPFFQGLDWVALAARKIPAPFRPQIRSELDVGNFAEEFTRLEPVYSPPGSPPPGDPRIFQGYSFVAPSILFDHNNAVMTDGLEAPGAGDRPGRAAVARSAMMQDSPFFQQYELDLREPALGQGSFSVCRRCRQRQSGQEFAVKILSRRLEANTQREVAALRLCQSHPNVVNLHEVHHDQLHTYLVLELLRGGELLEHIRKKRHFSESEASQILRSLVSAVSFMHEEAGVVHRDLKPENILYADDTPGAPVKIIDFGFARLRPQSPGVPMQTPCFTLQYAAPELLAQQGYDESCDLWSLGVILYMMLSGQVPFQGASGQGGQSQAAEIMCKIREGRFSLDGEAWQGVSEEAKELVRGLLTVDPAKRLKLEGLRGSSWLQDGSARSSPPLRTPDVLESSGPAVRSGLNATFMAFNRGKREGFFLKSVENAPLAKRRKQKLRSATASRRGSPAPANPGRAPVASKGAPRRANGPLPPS

[8] = molecular target: Ribosomal protein S6 kinase alpha-4 (Homo sapiens) (UniProt O75676); conditions: at 1 µM
[9] = molecular target: Ribosomal protein S6 kinase beta-1 (Homo sapiens) (UniProt P23443); conditions: at 0.1 µM
UniProt P23443, sequence (P23443 whole entry, looked up): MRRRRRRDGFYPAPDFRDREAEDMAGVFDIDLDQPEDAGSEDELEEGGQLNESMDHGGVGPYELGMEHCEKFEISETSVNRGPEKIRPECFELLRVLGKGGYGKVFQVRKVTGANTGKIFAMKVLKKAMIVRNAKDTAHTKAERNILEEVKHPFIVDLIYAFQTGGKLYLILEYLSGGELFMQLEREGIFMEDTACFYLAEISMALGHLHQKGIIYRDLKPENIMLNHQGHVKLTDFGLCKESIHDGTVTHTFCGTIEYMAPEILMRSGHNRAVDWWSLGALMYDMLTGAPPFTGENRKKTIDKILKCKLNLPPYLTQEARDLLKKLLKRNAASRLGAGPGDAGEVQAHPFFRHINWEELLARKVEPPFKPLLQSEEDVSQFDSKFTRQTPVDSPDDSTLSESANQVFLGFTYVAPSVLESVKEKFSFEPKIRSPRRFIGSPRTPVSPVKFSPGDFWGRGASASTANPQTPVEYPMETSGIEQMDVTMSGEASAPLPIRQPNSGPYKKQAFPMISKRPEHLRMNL

[10] = molecular target: Ribosomal protein S6 kinase beta-1 (Homo sapiens) (UniProt P23443); conditions: at 1 µM

UniProt Q5VT25, sequence (Q5VT25 whole entry): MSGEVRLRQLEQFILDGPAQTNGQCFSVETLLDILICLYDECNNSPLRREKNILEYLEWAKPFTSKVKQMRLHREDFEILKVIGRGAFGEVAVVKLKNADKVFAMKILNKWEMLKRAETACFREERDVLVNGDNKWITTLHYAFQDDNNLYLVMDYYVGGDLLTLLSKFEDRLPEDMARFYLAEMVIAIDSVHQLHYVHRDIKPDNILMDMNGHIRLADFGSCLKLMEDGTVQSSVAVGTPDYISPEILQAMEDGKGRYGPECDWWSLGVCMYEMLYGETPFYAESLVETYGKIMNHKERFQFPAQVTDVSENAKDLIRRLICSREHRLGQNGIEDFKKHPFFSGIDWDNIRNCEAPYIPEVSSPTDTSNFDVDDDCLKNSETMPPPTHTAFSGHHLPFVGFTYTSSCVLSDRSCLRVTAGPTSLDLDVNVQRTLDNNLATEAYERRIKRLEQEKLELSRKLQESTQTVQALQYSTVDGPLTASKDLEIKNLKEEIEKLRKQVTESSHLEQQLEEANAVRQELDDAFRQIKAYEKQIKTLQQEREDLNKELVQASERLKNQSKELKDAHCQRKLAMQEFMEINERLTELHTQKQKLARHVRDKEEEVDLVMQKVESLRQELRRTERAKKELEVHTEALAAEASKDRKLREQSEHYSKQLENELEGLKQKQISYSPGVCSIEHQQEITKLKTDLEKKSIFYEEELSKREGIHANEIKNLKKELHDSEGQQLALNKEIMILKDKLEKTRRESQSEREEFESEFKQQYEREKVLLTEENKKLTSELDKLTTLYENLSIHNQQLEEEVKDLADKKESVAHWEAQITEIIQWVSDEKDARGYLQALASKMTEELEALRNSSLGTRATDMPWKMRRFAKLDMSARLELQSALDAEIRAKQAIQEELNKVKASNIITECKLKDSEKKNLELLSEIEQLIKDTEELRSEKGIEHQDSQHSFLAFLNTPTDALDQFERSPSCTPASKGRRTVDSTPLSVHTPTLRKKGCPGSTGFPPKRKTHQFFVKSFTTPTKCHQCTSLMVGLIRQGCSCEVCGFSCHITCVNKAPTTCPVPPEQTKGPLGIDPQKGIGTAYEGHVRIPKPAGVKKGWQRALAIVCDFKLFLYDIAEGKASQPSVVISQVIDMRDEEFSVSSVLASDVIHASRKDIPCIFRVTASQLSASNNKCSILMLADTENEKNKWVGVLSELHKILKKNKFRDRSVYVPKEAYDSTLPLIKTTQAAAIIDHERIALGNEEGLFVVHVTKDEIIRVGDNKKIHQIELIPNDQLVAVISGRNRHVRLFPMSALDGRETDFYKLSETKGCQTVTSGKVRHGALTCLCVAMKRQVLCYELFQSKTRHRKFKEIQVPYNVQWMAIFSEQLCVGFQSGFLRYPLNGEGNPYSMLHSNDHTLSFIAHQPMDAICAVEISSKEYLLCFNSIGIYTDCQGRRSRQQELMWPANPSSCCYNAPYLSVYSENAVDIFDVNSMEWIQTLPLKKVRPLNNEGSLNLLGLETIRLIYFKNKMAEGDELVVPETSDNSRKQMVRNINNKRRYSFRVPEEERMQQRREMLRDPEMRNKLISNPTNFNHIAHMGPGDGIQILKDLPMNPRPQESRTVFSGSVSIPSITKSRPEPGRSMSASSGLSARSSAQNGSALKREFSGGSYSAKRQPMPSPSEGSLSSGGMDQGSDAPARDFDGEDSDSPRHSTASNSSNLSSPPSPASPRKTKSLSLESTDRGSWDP

COc1ccccc1Oc1nccc(-c2c(-c3ccc(F)cc3)ncn2C2CCNCC2)n1
inhibition [1]: -0.63%
inhibition [2]: -0.35%
inhibition [3]: 1.16%
inhibition [4]: 0.68%
inhibition [5]: -3.29%
inhibition [6]: -4.97%
inhibition [7]: 3.92%
inhibition [8]: 6.31%
inhibition [9]: 2.09%
inhibition [10]: 2.74%

Cc1cccc(Oc2nccc(-c3c(-c4ccc(F)cc4)ncn3C3CCNCC3)n2)c1C
inhibition [1]: -2.66%
inhibition [2]: 2.29%
inhibition [3]: -0.78%
inhibition [4]: -0.41%
inhibition [5]: 8.66%
inhibition [6]: 7.4%
inhibition [7]: 2.54%
inhibition [8]: 2.03%
inhibition [9]: 1.2%
inhibition [10]: 1.34%

CC(C)(C)c1ccc(Oc2nccc(-c3c(-c4ccc(F)cc4)ncn3C3CCNCC3)n2)cc1
inhibition [1]: -2.99%
inhibition [2]: 1.46%
inhibition [3]: -0.83%
inhibition [4]: 0.64%
inhibition [5]: 0.69%
inhibition [6]: -1.82%
inhibition [7]: 2.15%
inhibition [8]: 1.91%
inhibition [9]: 1.65%
inhibition [10]: 1.56%

CS(=O)(=O)c1ccc(Oc2nccc(-c3c(-c4ccc(F)cc4)ncn3C3CCNCC3)n2)cc1
inhibition [1]: -7.33%
inhibition [2]: -0.9%
inhibition [3]: -0.83%
inhibition [4]: 0.05%
inhibition [5]: 1.74%
inhibition [6]: -1.62%
inhibition [7]: 2.75%
inhibition [8]: 1.09%
inhibition [9]: 2.04%
inhibition [10]: 2.47%

O=C1NC(=O)C(c2ccccc2Cl)=C1Nc1cc(Cl)c(O)c(Cl)c1
inhibition [1]: -0.61%
inhibition [2]: 1.91%
inhibition [3]: -0.85%
inhibition [4]: 0.79%
inhibition [5]: 2.49%
inhibition [6]: 4.05%
inhibition [7]: 1.22%
inhibition [8]: 2.51%
inhibition [9]: -0.16%
inhibition [10]: 0.28%

NC(=O)CCc1ccccc1Oc1nccc(-c2c(-c3ccc(F)cc3)ncn2C2CCNCC2)n1
inhibition [1]: -0.52%
inhibition [2]: -0.89%
inhibition [3]: 0.43%
inhibition [4]: -0.31%
inhibition [5]: -0.92%
inhibition [6]: -0.96%
inhibition [7]: -1.62%
inhibition [8]: -1.85%
inhibition [9]: -1.25%
inhibition [10]: -0.66%

O=C1NC(=O)C(c2ccccc2)=C1Nc1ccccc1
inhibition [1]: -0.01%
inhibition [2]: 0.95%
inhibition [3]: 0.3%
inhibition [4]: 2.08%
inhibition [5]: -1.64%
inhibition [6]: -0.66%
inhibition [7]: 3.55%
inhibition [8]: 3.97%
inhibition [9]: 1.95%
inhibition [10]: 2.47%

COc1ccccc1C1=C(Nc2ccccc2)C(=O)NC1=O
inhibition [1]: 1.35%
inhibition [2]: 17.1%
inhibition [3]: 0.99%
inhibition [4]: 6.81%
inhibition [5]: -3.39%
inhibition [6]: -2.33%
inhibition [7]: 2.05%
inhibition [8]: 3.19%
inhibition [9]: 0.95%
inhibition [10]: 2.68%

Fc1ccc(-c2ncn(C3CCNCC3)c2-c2ccnc(Oc3cccc(C(F)(F)F)c3)n2)cc1
inhibition [1]: -3.17%
inhibition [2]: 0.21%
inhibition [3]: 0.54%
inhibition [4]: -0.47%
inhibition [5]: 4.14%
inhibition [6]: 2.67%
inhibition [7]: 3.47%
inhibition [8]: 1.93%
inhibition [9]: 1.59%
inhibition [10]: 2.87%

Fc1ccc(-c2ncn(C3CCNCC3)c2-c2ccnc(Oc3cccc(F)c3)n2)cc1
inhibition [1]: 3.46%
inhibition [2]: 5.27%
inhibition [3]: 0.49%
inhibition [4]: 3.94%
inhibition [5]: -2.45%
inhibition [6]: -3.65%
inhibition [7]: 4.21%
inhibition [9]: 3.15%
inhibition [10]: 4.35%

Fc1ccc(-c2ncn(C3CCNCC3)c2-c2ccnc(Oc3ccc(Cl)cc3)n2)cc1
inhibition [1]: -1.47%
inhibition [2]: 2.44%
inhibition [4]: 1.34%
inhibition [5]: -7.21%
inhibition [6]: -8.03%
inhibition [7]: 0.6%
inhibition [8]: 0.3%
inhibition [9]: 0.15%
inhibition [10]: 1.78%

O=C(O)c1ccc(Oc2nccc(-c3c(-c4ccc(F)cc4)ncn3C3CCNCC3)n2)cc1
inhibition [1]: 6.62%
inhibition [2]: 6.33%
inhibition [3]: 0.85%
inhibition [4]: 2%
inhibition [5]: 4.95%
inhibition [6]: 5.6%
inhibition [7]: 1.09%
inhibition [8]: 3.62%
inhibition [9]: 1.55%
inhibition [10]: 3.29%

Fc1ccc(Oc2nccc(-c3c(-c4ccc(F)cc4)ncn3C3CCNCC3)n2)cc1
inhibition [1]: 3.57%
inhibition [2]: 5.65%
inhibition [3]: 0.07%
inhibition [4]: 1.76%
inhibition [5]: 2.27%
inhibition [6]: 2.83%
inhibition [7]: 1.95%
inhibition [8]: 4.12%
inhibition [9]: 2.16%
inhibition [10]: 3.8%

O=C1NC(=O)C(c2cccc([N+](=O)[O-])c2)=C1Nc1cc(Cl)c(O)c(Cl)c1
inhibition [1]: -1.78%
inhibition [2]: -0.25%
inhibition [3]: 0.3%
inhibition [4]: 0.29%
inhibition [5]: 0.56%
inhibition [6]: -1.6%
inhibition [7]: 2.64%
inhibition [8]: 1.45%
inhibition [9]: 1.1%
inhibition [10]: 0.65%
